Test results published in the supplement of paper PMC8728848.
Some of the results follow.

Key:
Test in all cases: glycan array binding signal (z-score within array); higher = stronger binding
Details in all cases: glycan notation: IUPAC condensed, linker removed
[1] = molecular target: Fuc(a1-2)Gal
Summary of the method: (§1)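 Glycan array data were curated from 3228 arrays in the Consortium for Functional Glycomics database and kept only where the protein sequence was available. Glycan names were converted to IUPAC-condensed notation, and columns mapping to the same glycan were averaged. The binding signal is a within-array Z-score, averaged across arrays of the same protein sequence at different concentrations or buffers and across linkers. Negative Z-scores can be read as non-binding.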

[2] = molecular target: Fuc(a1-2)Gal(b1-3)GalNAc
Summary of the method: as §1

[3] = molecular target: Fuc(a1-2)Gal(b1-3)GalNAc(a1-3)[Fuc(a1-2)]Gal(b1-4)Glc
Summary of the method: as §1

[4] = molecular target: Fuc(a1-2)Gal(b1-3)GalNAc(a1-3)[Fuc(a1-2)]Gal(b1-4)GlcNAc
Summary of the method: as §1

[5] = molecular target: Fuc(a1-2)Gal(b1-3)GalNAc(b1-3)Gal
Summary of the method: as §1

[6] = molecular target: Fuc(a1-2)Gal(b1-3)GalNAc(b1-3)Gal(a1-4)Gal(b1-4)Glc
Summary of the method: as §1

[7] = molecular target: Fuc(a1-2)Gal(b1-3)GalNAc(b1-4)[Neu5Ac(a2-3)]Gal(b1-4)Glc
Summary of the method: as §1

[8] = molecular target: Fuc(a1-2)Gal(b1-3)GlcNAc
Summary of the method: as §1

[9] = molecular target: Fuc(a1-2)Gal(b1-3)GlcNAc(b1-2)Man(a1-3)[Fuc(a1-2)Gal(b1-3)GlcNAc(b1-2)Man(a1-6)]Man(b1-4)GlcNAc(b1-4)GlcNAc
Summary of the method: as §1

[10] = molecular target: Fuc(a1-2)Gal(b1-3)GlcNAc(b1-2)Man(a1-3)[Fuc(a1-2)Gal(b1-3)GlcNAc(b1-2)Man(a1-6)]Man(b1-4)GlcNAc(b1-4)[Fuc(a1-6)]GlcNAc
Summary of the method: as §1

[11] = molecular target: Fuc(a1-2)Gal(b1-3)GlcNAc(b1-3)Gal(b1-4)Glc
Summary of the method: as §1

[12] = molecular target: Fuc(a1-2)Gal(b1-3)GlcNAc(b1-3)GalNAc
Summary of the method: as §1

[13] = molecular target: Fuc(a1-2)Gal(b1-3)GlcNAc(b1-3)[Fuc(a1-2)Gal(b1-3)GlcNAc(b1-6)]GalNAc
Summary of the method: as §1

[14] = molecular target: Fuc(a1-2)Gal(b1-3)GlcNAc(b1-3)[Fuc(a1-3)[Gal(b1-4)]GlcNAc(b1-6)]Gal(b1-4)Glc
Summary of the method: as §1

[15] = molecular target: Fuc(a1-2)Gal(b1-3)GlcNAc(b1-3)[Gal(b1-4)GlcNAc(b1-6)]Gal(b1-4)Glc
Summary of the method: as §1

[16] = molecular target: Fuc(a1-2)Gal(b1-3)GlcNAc(b1-3)[Neu5Ac(a2-6)Gal(b1-4)GlcNAc(b1-6)]Gal(b1-4)Glc
Summary of the method: as §1

[17] = molecular target: Fuc(a1-2)Gal(b1-3)GlcNAc6S
Summary of the method: as §1

[18] = molecular target: Fuc(a1-2)Gal(b1-3)[Fuc(a1-4)]GlcNAc
Summary of the method: as §1

[19] = molecular target: Fuc(a1-2)Gal(b1-3)[Fuc(a1-4)]GlcNAc(b1-2)Man(a1-3)[Fuc(a1-2)Gal(b1-3)[Fuc(a1-4)]GlcNAc(b1-2)Man(a1-3)]Man(b1-4)GlcNAc(b1-4)GlcNAc
Summary of the method: as §1

[20] = molecular target: Fuc(a1-2)Gal(b1-3)[Fuc(a1-4)]GlcNAc(b1-2)Man(a1-3)[Fuc(a1-2)Gal(b1-3)[Fuc(a1-4)]GlcNAc(b1-2)Man(a1-6)]Man(b1-4)GlcNAc(b1-4)GlcNAc
Summary of the method: as §1

[21] = molecular target: Fuc(a1-2)Gal(b1-3)[Fuc(a1-4)]GlcNAc(b1-2)Man(a1-3)[Fuc(a1-2)Gal(b1-3)[Fuc(a1-4)]GlcNAc(b1-2)Man(a1-6)]Man(b1-4)GlcNAc(b1-4)[Fuc(a1-6)]GlcNAc(b1-4)[Fuc(a1-6)]GlcNAc
Summary of the method: as §1

[22] = molecular target: Fuc(a1-2)Gal(b1-3)[Fuc(a1-4)]GlcNAc(b1-3)[Fuc(a1-3)[Gal(b1-4)]GlcNAc(b1-6)]Gal(b1-4)Glc
Summary of the method: as §1

[23] = molecular target: Fuc(a1-2)Gal(b1-3)[Fuc(a1-4)]GlcNAc(b1-3)[Gal(b1-4)GlcNAc(b1-6)]Gal(b1-4)Glc
Summary of the method: as §1

[24] = molecular target: Fuc(a1-2)Gal(b1-4)Fuc(a1-3)]GlcNAc(b1-2)Man(a1-3)[Fuc(a1-2)Gal(b1-4)[Fuc(a1-3)]GlcNAc(b1-2)Man(a1-6)]Man(b1-4)GlcNAc(b1-4)GlcNAc
Summary of the method: as §1

[25] = molecular target: Fuc(a1-2)Gal(b1-4)Glc
Summary of the method: as §1

[26] = molecular target: Fuc(a1-2)Gal(b1-4)Glc6S
Summary of the method: as §1

[27] = molecular target: Fuc(a1-2)Gal(b1-4)GlcNAc
Summary of the method: as §1

[28] = molecular target: Fuc(a1-2)Gal(b1-4)GlcNAc(b1-2)Man
Summary of the method: as §1

[29] = molecular target: Fuc(a1-2)Gal(b1-4)GlcNAc(b1-2)Man(a1-3)[Fuc(a1-2)Gal(b1-4)GlcNAc(b1-2)Man(a1-6)]Man(b1-4)GlcNAc(b1-4)GlcNAc
Summary of the method: as §1

[30] = molecular target: Fuc(a1-2)Gal(b1-4)GlcNAc(b1-2)Man(a1-3)[Fuc(a1-2)Gal(b1-4)GlcNAc(b1-2)Man(a1-6)]Man(b1-4)GlcNAc(b1-4)[Fuc(a1-6)]GlcNAc
Summary of the method: as §1

B1: Gal 1 (Mus musculus), P16045 (protein)
chain: MACGLVASNLNLKPGECLKVRGEVASDAKSFVLNLGKDSNNLCLHFNPRFNAHGDANTIVCNTKEDGTWGTEHREPAFPFQPGSITEVCITFDQADLTIKLPDGHEFKFPNRLNMEAINYMAADGDFKIKCVAFE
glycan array binding signal (z-score) [1]: -0.375 | glycan array binding signal (z-score) [2]: -0.319 | glycan array binding signal (z-score) [3]: -0.352 | glycan array binding signal (z-score) [4]: -0.265 | glycan array binding signal (z-score) [5]: -0.273 | glycan array binding signal (z-score) [6]: -0.358 | glycan array binding signal (z-score) [7]: -0.1 | glycan array binding signal (z-score) [8]: -0.194 | glycan array binding signal (z-score) [9]: 0.069 | glycan array binding signal (z-score) [10]: -0.268 | glycan array binding signal (z-score) [11]: -0.229 | glycan array binding signal (z-score) [12]: -0.317 | glycan array binding signal (z-score) [13]: 0.022 | glycan array binding signal (z-score) [14]: 0.075 | glycan array binding signal (z-score) [15]: -0.005 | glycan array binding signal (z-score) [16]: 0.017 | glycan array binding signal (z-score) [17]: 0.093 | glycan array binding signal (z-score) [18]: -0.058 | glycan array binding signal (z-score) [19]: 0.655 | glycan array binding signal (z-score) [20]: 0.007 | glycan array binding signal (z-score) [21]: 0.125 | glycan array binding signal (z-score) [22]: -0.357 | glycan array binding signal (z-score) [23]: -0.128 | glycan array binding signal (z-score) [24]: 0.7 | glycan array binding signal (z-score) [25]: -0.118 | glycan array binding signal (z-score) [26]: -0.241 | glycan array binding signal (z-score) [27]: -0.279 | glycan array binding signal (z-score) [28]: -0.323 | glycan array binding signal (z-score) [29]: 0.532 | glycan array binding signal (z-score) [30]: 0.1
